Assay results taken from ChEMBL document CHEMBL4888484, “Replenishing the malaria drug discovery pipeline: Screening and hit evaluation of the MMV Hit Generation Library 1 (HGL1) against asexual blood stage Plasmodium falciparum ,using a nano luciferase reporter read-out” (2022).
Hit rate of the full screen: of about 150,000 compounds, about 540 (0.36%) showed an effect of 50% or more. This is one part of the list.

The compounds below were run on Plasmodium falciparum (assay: Primary screen in NF54 nanoGlo assay, in single point, at 2uM, 72h; a lower Z score goes with more inhibition). Details: timepoint 72 hour.
Assay type: functional, Erythrocyte
`CNC(=O)c1noc(CNC(=O)c2cc(C)n(C)c2C)n1` was tested, and the “% Inhibition” value was -2% and the Z score was 0.33.
For `Cc1[nH]c2ccccc2c1C(=O)C(C#N)C(=O)C1CC1C` (stereo not given), the “% Inhibition” value was 0% and the Z score was -0.03.
With `CN(CC(=O)Nc1ccc2c(c1)CCC2)Cc1ccco1` the “% Inhibition” value was -7% and the Z score was 0.72.
With `CC(C)NC(=O)c1csc(CN(CCC(c2ccccc2)c2ccccc2)Cc2ccc(F)cc2)n1` the “% Inhibition” value was -10% and the Z score was 1.69.
For `CCS(=O)(=O)C1CN(Cc2ccn(CC(F)(F)F)n2)C1`, the “% Inhibition” value was -6% and the Z score was 0.87.
`CCC(C)[C@H](NC(=O)OC(C)(C)C)C(=O)NC[C@H]1CC[C@H](C(=O)N[C@H](C(=O)O)C(C)C)CC1` (stereo not given in full) was tested, and the “% Inhibition” value was -4% and the Z score was 0.48.
`Cc1ccc(N2CN(CC(=O)N3CCCCC3)S(=O)(=O)c3cccnc32)cc1` was tested, and the “% Inhibition” value was -22% and the Z score was 2.41.
With `COc1cc(C)cc2c(C)c(C(=O)N3C[C@@H](C)[C@](C)(CN)C3)oc12` the “% Inhibition” value was 23% and the Z score was -2.86.
`CC(=O)N(Cc1cccnc1)[C@H]1CCCN(C(=O)c2sc(C)nc2C)C1` was tested, and the “% Inhibition” value was -9% and the Z score was 1.54.
For `Cc1nnc(N(C)[C@H]2CCC(=O)N(C)C2)nc1C`, the “% Inhibition” value was -6% and the Z score was 1.28.
`Cc1cc(C(F)(F)F)cc(=O)n1C[C@H]1CCCCO1` was tested, and the “% Inhibition” value was -9% and the Z score was 1.27.
For `CC(C)N(CC1CC1)C(=O)NC1CN(S(=O)(=O)N(C)C)C1`, the “% Inhibition” value was -11% and the Z score was 1.45.
For `CC(C)Cc1ccc(CN2CCN([C@H]3CCNC3)CC2)s1`, the “% Inhibition” value was -6% and the Z score was 0.81.
With `Cc1ccc(Nc2ccc3ncnc4c3c2C(=O)c2ccccc2-4)cc1` the “% Inhibition” value was -5% and the Z score was 0.62.
`COc1ccc(CC(=O)Nc2cnc(N3CCCCCC3)nc2)cc1` was tested, and the “% Inhibition” value was -20% and the Z score was 1.75.
`COc1c(CNC(=O)c2cc[nH]c2C2CCC2)c(C)nn1C` was tested, and the “% Inhibition” value was -47% and the Z score was 5.56.
In the case of `O=C(c1sc2ccccc2c1Cl)N1CCc2ccccc21`, the “% Inhibition” value is reported as -8% and the Z score is reported as 1.51.
`CC(CNC1C2CCCOC2C1(C)C)N1CCOCC1C` (stereo not given) was tested, and the “% Inhibition” value was -11% and the Z score was 1.37.
With `Cc1cc(-c2cccc(C(=O)N3CC[C@@H](O)C3)c2)cnc1-n1cnnc1` the “% Inhibition” value was -5% and the Z score was 0.44.
In the case of `CCOCCC(=O)NCc1cnc(C)c(C)c1`, the “% Inhibition” value is reported as -11% and the Z score is reported as 2.1.
`Cc1ocnc1C(=O)N1CCC2(CC1)CC(=O)N(C[C@H]1CCCO1)C2` was tested, and the “% Inhibition” value was -16% and the Z score was 1.62.
With `CCCN(CCOc1c(Cl)cc(Cl)c(O)c1Cl)C(N)=O` the “% Inhibition” value was 0% and the Z score was 0.05.
In the case of `COC(=O)c1cnc(N2CCC[C@H]2C2CCCCC2)nc1`, the “% Inhibition” value is reported as -8% and the Z score is reported as 1.32.
In the case of `O=C(CCC1CCCC1)NS(=O)(=O)c1cccc2c1N=S=N2`, the “% Inhibition” value is reported as -14% and the Z score is reported as 1.62.
In the case of `COc1ccc(S(=O)(=O)N[C@@H](C)C(=O)Nc2cc(S(=O)(=O)Nc3ccccc3Cl)ccc2N2CCCC2)cc1`, the “% Inhibition” value is reported as 11% and the Z score is reported as -1.16.
With `O=C1CN(c2ccnc(C(=O)N3CC[C@@H]4CCC[C@@H]43)c2)CCN1` the “% Inhibition” value was -7% and the Z score was 1.27.
For `CCN(CC(=O)NCc1cccs1)CC(=O)Nc1cccc(S(=O)(=O)N2CCCCC2)c1`, the “% Inhibition” value was -9% and the Z score was 0.96.
In the case of `Cc1ccc(NS(C)(=O)=O)c(NC(=O)CC2=CCCCC2)c1`, the “% Inhibition” value is reported as -11% and the Z score is reported as 1.54.
`Cc1ccccc1NC(=O)CC(=O)N1CCC(O)(Cn2ccnc2)CC1` was tested, and the “% Inhibition” value was -4% and the Z score was 0.74.
`Cc1nc(C(=O)N2CC[C@H](Oc3ccccc3)C2)c[nH]1` was tested, and the “% Inhibition” value was -10% and the Z score was 1.09.
For `CCOC(=O)c1cn[nH]c1[C@H]1CCN(Cc2nnnn2C(C)(C)C)C1`, the “% Inhibition” value was -7% and the Z score was 1.46.
For `CCCn1nc(C)cc1CN(C)c1ccc(C(=O)O)cc1NC(=O)c1ccc(Br)cc1`, the “% Inhibition” value was -9% and the Z score was 1.45.
For `CC1CC(N(C)C(=O)CC(N)c2ccccc2)CCN1Cc1ccccc1` (stereo not given), the “% Inhibition” value was 0% and the Z score was 0.01.
For `CC(C)C(=O)NCC1CCN(C(C)C)CC1`, the “% Inhibition” value was -8% and the Z score was 1.3.
`COc1cc(F)c(CN(C)C[C@H]2CCOC2)c(F)c1` was tested, and the “% Inhibition” value was -9% and the Z score was 1.54.
`O=C(NCc1ccncc1)[C@H]1CCCN(c2nc3ccccc3n2CC2CCCCC2)C1` was tested, and the “% Inhibition” value was -7% and the Z score was 0.71.
In the case of `CC(C)(CNS(C)(=O)=O)c1cccs1`, the “% Inhibition” value is reported as -4% and the Z score is reported as 0.49.
In the case of `CC1(C)OCC[C@@H]1N1N=C(c2ccc(Cl)cc2)CC1=O`, the “% Inhibition” value is reported as -7% and the Z score is reported as 1.28.
For `CC(C)N(CC(N)=O)CC(=O)N(C)Cc1ccccc1`, the “% Inhibition” value was 32% and the Z score was -3.6.
`Cc1ccc(Cn2c(C)c(CNC3CCCCCC3)c(C(=O)O)c2C)cc1` was tested, and the “% Inhibition” value was -8% and the Z score was 1.51.
`CC1=NN([C@H](NC(N)=O)c2ccccc2)C(=O)C1(C)C` was tested, and the “% Inhibition” value was -10% and the Z score was 1.33.
With `CN(C(=O)n1nnc2ccccc21)c1ccccc1` the “% Inhibition” value was -1% and the Z score was 0.1.
`CC[C@@](NC(=O)c1ccncc1)(C(N)=O)C(C)C` was tested, and the “% Inhibition” value was -9% and the Z score was 0.77.
With `COC(=O)c1ccc(-c2nc(-c3cc(C)nc4ccccc34)no2)cc1` the “% Inhibition” value was -13% and the Z score was 2.04.
For `O=C(Cc1cccnc1)N1CCN(c2ccccn2)C(=O)C1`, the “% Inhibition” value was -9% and the Z score was 1.83.
For `NC(=O)c1cccc2c(-c3ccc(O)cc3)cccc12`, the “% Inhibition” value was -12% and the Z score was 1.52.
For `COCCOC1CCN(C(=O)c2cccc(-c3ccccc3Cl)c2)CC1`, the “% Inhibition” value was -11% and the Z score was 1.9.
With `CCOC(=O)c1cnn(-c2nc3ccccc3[nH]2)c1CN1CCOCC1` the “% Inhibition” value was -21% and the Z score was 2.74.
In the case of `Cc1ccc(CNC(=O)Cn2cc(-c3noc(-c4cccnc4)n3)nc2C)cc1`, the “% Inhibition” value is reported as -5% and the Z score is reported as 0.66.
`c1ccc2c(c1)CCN(Cc1ccc([C@@H]3CCCO3)s1)C2` was tested, and the “% Inhibition” value was -7% and the Z score was 0.68.
`CCO[C@H]1C[C@@H](O)C12CCN(C(=O)NCc1ccc(OC)cc1)CC2` was tested, and the “% Inhibition” value was 10% and the Z score was -1.35.
`Cc1ccc(CC(=O)N2C[C@H]3CC[C@@H](C2)N(Cc2cscn2)C3=O)cc1` was tested, and the “% Inhibition” value was -14% and the Z score was 1.88.
With `CN1C[C@@H](C(=O)Nc2csc(N3CCCCC3)n2)CC1=O` the “% Inhibition” value was 38% and the Z score was -5.12.
`Cc1noc(CNC(=O)Nc2ncc(C(C)C)s2)n1` was tested, and the “% Inhibition” value was 0% and the Z score was 0.02.
`COc1ccc(CC(=O)NCCc2n[nH]c(-c3ccc(OC)cc3)n2)cc1` was tested, and the “% Inhibition” value was -4% and the Z score was 0.71.
`COCCn1ccc2cc(C(=O)NCC3(c4ccc(OC)cc4)CCOCC3)ccc21` was tested, and the “% Inhibition” value was -5% and the Z score was 0.87.
With `CC(C)COC(=O)N1CCN(C[C@@H](C#N)CCC#N)CC1` the “% Inhibition” value was -10% and the Z score was 0.97.
In the case of `Cn1cc(C(=O)NC(c2ccc(F)cc2)C2CCCO2)cn1` (stereo not given), the “% Inhibition” value is reported as -10% and the Z score is reported as 1.37.
`CCN(C)C(=O)c1ccc(NCCN2CCOCC2)c(Cl)c1` was tested, and the “% Inhibition” value was 8% and the Z score was -1.25.
`CC(C)N1CCN(C(=O)CCn2nnc3ccccc3c2=O)CC1` was tested, and the “% Inhibition” value was -7% and the Z score was 1.21.
With `CCO[C@H]1COCC[C@@H]1NC(=O)c1cnc(-c2cccnc2)nc1` the “% Inhibition” value was -6% and the Z score was 1.06.
For `COC(C)c1nc(C)c(C(=O)N[C@H]2CCCC[C@H]2C(F)(F)F)s1` (stereo not given in full), the “% Inhibition” value was -1% and the Z score was 0.21.
With `CCOC(=O)c1cc(C2CC2)nc2c1c(=O)n(CC(=O)Nc1cc(C)ccc1C)c(=O)n2C` the “% Inhibition” value was 6% and the Z score was -0.85.
In the case of `CCCCc1nc(CN2CCC[C@H](Nc3ccc(OC)c(OC)c3)C2)c[nH]1`, the “% Inhibition” value is reported as -17% and the Z score is reported as 2.25.
With `O=C(NCCc1ccc(F)cc1)c1ccnc(OC2CCOCC2)c1` the “% Inhibition” value was 1% and the Z score was -0.12.
In the case of `O=C(NCc1cccc(CO)n1)c1ccccc1C1CCC1`, the “% Inhibition” value is reported as -6% and the Z score is reported as 1.16.
For `C[C@@H]1CN(C[C@@H]2CN(C(=O)Cc3cc(F)cc(F)c3)C[C@@H]2CO)C[C@H](C)O1`, the “% Inhibition” value was 0% and the Z score was -0.09.
In the case of `Cc1nc2c(C(=O)Nc3ccc4cn(C(C)C)nc4c3)ccnc2[nH]1`, the “% Inhibition” value is reported as 9% and the Z score is reported as -1.46.
For `Cc1cc(C)cc(OCCCN(C)C(=O)c2ncc(F)cc2F)c1`, the “% Inhibition” value was -4% and the Z score was 0.88.
`CN(Cc1cn[nH]c1-c1ccc(F)cc1)C(=O)[C@H](N)Cc1ccccc1` was tested, and the “% Inhibition” value was -13% and the Z score was 2.18.
In the case of `O=c1[nH]nc([C@H]2CCCN(C3CCOCC3)C2)n1-c1ccccc1`, the “% Inhibition” value is reported as 5% and the Z score is reported as -0.63.
For `COc1cccc(N2CCN(C(=O)c3snc(C(=O)NCC(C)C)c3N)CC2)c1`, the “% Inhibition” value was 7% and the Z score was -0.76.
`CCCNC(=N)c1c(C)ncc2c1CCC2` was tested, and the “% Inhibition” value was -8% and the Z score was 0.93.
For `Cc1nn(C)c(C)c1-c1cc(-c2ccc3[nH]ccc3c2)c(C#N)c(N)n1`, the “% Inhibition” value was -7% and the Z score was 1.37.
`Cc1nc(C)c(C(=O)N(C)Cc2cc(C(C)C)no2)s1` was tested, and the “% Inhibition” value was -10% and the Z score was 1.17.
With `CC(OC(=O)C1CC2CCC1C2)C(=O)NC(N)=O` (stereo not given) the “% Inhibition” value was -8% and the Z score was 1.35.
`CCCN1CCC(NC(=O)CCC2CCCCC2)CC1` was tested, and the “% Inhibition” value was -13% and the Z score was 1.19.
In the case of `CCC#CCN1CCC[C@H](CNC(=O)C2CCC2)C1`, the “% Inhibition” value is reported as -7% and the Z score is reported as 0.99.
`O=C(O)[C@@]12CC[C@@H](c3ccccc3)C[C@@H]1CN(Cc1c[nH]cn1)C2` was tested, and the “% Inhibition” value was -10% and the Z score was 1.92.
In the case of `Cn1nncc1-c1csc(NC2CCCCC2)n1`, the “% Inhibition” value is reported as -16% and the Z score is reported as 1.36.
In the case of `COC(=O)c1ccc(NC(=O)N[C@H]2CCNC2=O)cc1`, the “% Inhibition” value is reported as -3% and the Z score is reported as 0.53.
With `Cc1ccc(NC(=O)NC(C)C(C)n2cncn2)s1` (stereo not given) the “% Inhibition” value was -2% and the Z score was 0.21.
In the case of `CN(C)c1nc(N2CCN(C3CCCCC3)CC2)nc2c1CNCC2`, the “% Inhibition” value is reported as -2% and the Z score is reported as 0.35.
`CC(C)CCNC(=O)c1cccn(-c2ccc(NC(=O)c3ccc(F)cc3)cc2)c1=O` was tested, and the “% Inhibition” value was -18% and the Z score was 3.05.
`CC[C@@H](CNC(=O)c1cc(C)no1)N1CCCC1` was tested, and the “% Inhibition” value was 0% and the Z score was -0.06.
